Assay results: US20230060388A1 (SHANGHAI HENLIUS BIOTECH, published 2023)

Tests used:
[1] = biological target: T1, human TIGIT expressed on cells (stably transfected Jurkat cells) (human, UniProt Q495A1 22-244); assay: cell-based or functional assay
T1 sequence: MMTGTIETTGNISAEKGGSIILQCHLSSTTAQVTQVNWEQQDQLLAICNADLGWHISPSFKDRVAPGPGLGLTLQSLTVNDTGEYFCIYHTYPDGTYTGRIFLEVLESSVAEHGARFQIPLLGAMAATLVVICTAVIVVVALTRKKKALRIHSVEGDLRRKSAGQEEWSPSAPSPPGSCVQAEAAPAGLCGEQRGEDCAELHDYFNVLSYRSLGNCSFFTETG

[2] = biological target: T1, human TIGIT expressed on cells (stably …); assay: cell-based or functional assay; remark: listed apart in the source
[3] = biological target: T1, human TIGIT expressed on cells (stably …); assay: cell-based or functional assay; remark: listed apart in the source
[4] = biological target: T1, human TIGIT expressed on cells (stably …); assay: TIGIT WCB: whole cell binding, flow cytometry, h-TIGIT Jurkat cells; mean
Method: Affinity to TIGIT was further examined in whole cell binding assay using human TIGIT transfected Jurkat cells. Antibodies were incubated with h-TIGIT transfected Jurkat cells, and binding of antibodies to h-TIGIT was determined using a secondary anti-human-IgG Fc antibody conjugated with AlexaFluor488, which was detected by flow cytometry.

[5] = biological target: T1, human TIGIT expressed on cells (stably …); assay: flow cytometry on h-TIGIT transfected Jurkat cells (whole cell binding), Alexa Fluor 488 [upper panel]
[6] = biological target: T2, his-tagged recombinant human PD1 ECD (human, UniProt Q15116 in part); assay: Octet, antibody loaded on the sensor, his-tagged h-PD1 ECD injected first, his-tagged h-TIGIT ECD second
T2 construct: extracellular domain; also called h-PD1 ECD (his-tagged); not shown: his tag

[7] = biological target: T1, human TIGIT expressed on cells (stably …); assay: flow cytometry on h-TIGIT transfected Jurkat cells (whole cell binding), Alexa Fluor 488; representative of three experiments

T2 sequence (Q15116 25-170): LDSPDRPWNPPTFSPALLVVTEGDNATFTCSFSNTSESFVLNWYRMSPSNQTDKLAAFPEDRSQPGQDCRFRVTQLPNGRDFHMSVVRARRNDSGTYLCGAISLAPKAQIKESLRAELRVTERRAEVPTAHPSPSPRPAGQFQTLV

EC50 (nM), TIGIT blockade NFAT reporter, Average [1]: 0.57 nM | EC50 (nM), TIGIT blockade NFAT reporter, Exp 1 [1]: 0.58 nM | EC50 (nM), TIGIT blockade NFAT reporter, Exp 2 [1]: 0.687 nM | EC50 (nM), TIGIT blockade NFAT reporter, Exp 3 [1]: 0.45 nM | EC50 (Mean, nM), TIGIT Blockade Assay [2]: 2.3 nM | EC50 (read off the curve) of the NFAT luciferase reporter activity, TIGIT blockade assay [lower panel] [3]: ~1000 pM | EC50 [4]: 350 pM | EC50 (read off the curve) [5]: ~500 pM | EC50 (read off the curve) [7]: ~300 pM
B1: 2A3-LT-Fc (hotspot corrected 2A3 ML_DT, wild type Fc) (Fc fusion)
chain: QVQLVESGGGVVQPGRSLRLSCAASGGSFSSYPMGWFRQAPGKERESVAAISSDLRFTYYADSVKGRFTISRDNSKNTLYLQMNSLRAEDTAVYYCAARTSGVGYYSRAQWYDYWGQGTLVTVSS[letters of human IgG1 Fc omitted]
notes: assigned here; also called 2A3-LT-Fc wt; aTIGIT-Fc
binding result [6]: no binding (tested: concentrations not printed)
